# The list shows a part of the results.
# System: PfHDP1 homeodomain (GST-tagged)
# Test: gcPBM binding intensity (ln(normalized median fluorescence intensity)); higher = stronger DNA binding
# Method in brief: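 Probes on an Agilent 4 × 180k array were primer-extended, double-stranded and 36 bp long, taken from intergenic genomic regions, with negative controls added. GST-tagged P. falciparum DNA-binding domains from E. coli, about 25 μg on average, were applied to the array for 1 h in 1× PBS containing 1% milk, 0.2 mg/ml BSA, 0.5% salmon testes DNA and 0.03% Triton X-100. Binding intensity, obtained after Alexa488 anti-GST antibody detection and a 488 nm scan, is the highest Masliner-normalised natural-log median intensity across replicate spots of either probe orientation.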
row,Sequence,gcPBM binding intensity (ln)
1,TCTAAACAAATTAATAAAATAAGTATTCAAAATTAT [CACACA_negctrl_site731],6.16
2,AATATTTATTTTTTTGCACACATATTTTACATTTTA [CACACA_site3182],10.3
3,GTAAAATTTCGGATTTGTACACATGGCTATGAAAAA [XGTACX_site939],6.57
4,TCCCATAATATTAGTAGTACTATTAATATTTTCAGG [XGTACX_site4925],6.25
5,TTATGTTATAAATACACACACAAAAGAAAAAAAAAA [CACACA_site7414],6.79
6,TTCTCTATAAATGCTGCACACACATTTAATTATTTA [CACACA_site8828],8.06
7,ATTTCTTTTTTTTCTTGTACACATATTAAATTTATG [XGTACX_site734],7.23
8,AAAAAGCAGGATTATACACACAAATATTTATATGTT [CACACA_site6634],6.29
9,GCGTAGTTCGGAAGGGTGCTTTTTTGTTAATAAAAA [GTGCAC_site9592],6.13
10,TATAAACAGACGAAAACACACATATGTAAATATATA [CACACA_site4428],6.82
11,ATAAAAATAATATCATGTACATATGTGTATTGTATT [XGTACX_site1768],6.89
12,TACAAAAAGTTATACACACACGTACCTATAAATAGA [CACACA_site6571],6.57
13,CAGACCTCTTTGTCATGTACATAAAAAAATAAAGAA [XGTACX_site7887],6.62
14,TATTTCTTTTGGTTGGTGCATAAAATAATACAATAT [GTGCAC_site9916],10.5
15,ATTTGCTTTTATTTTACACACTTGCTCCTGTTGTAC [CACACA_site1088],7.81
16,AAAAAAAAATATATTGCACACCTCTCAATAAAAAAA [CACACA_site172],9.63
17,ACGAATTAAATGGATTAATATATATATGTATATTTA [CACACA_negctrl_site1512],6.16
18,CGCAACACTATTTGGGTGCTCTTCAAAAAAAAAAAA [GTGCAC_site9598],5.92
19,TTAAATACTTTTCGAAGTACATTATATATATAATAT [XGTACX_site7530],6.26
20,AGAATATATATAATAGTGCAATGTACAATGAACAAA [GTGCAC_site9577],8.58
21,TCCATTCTATTTTTTACACACGTATGTAAATATTAT [CACACA_site2686],6.9
22,ACTTTTTAATAATAATAATTATATATATATATATAT [TGCATGCA_negctrl_site459],9.14
23,ATATATATTTAATTTACACACAAAAAAAATTGTTGG [CACACA_site961],6.65

row,Sequence,gcPBM binding intensity (ln)
1,TATAAGAAAATAATGTGTACTAAATAATAAATGCAT [XGTACX_site1204],6.71
2,CCACATGAGATGATTACACACATATAAATATTTACA [CACACA_site6222],6.6
3,CGACTTTTAAAATATACACACATATATATATATATA [CACACA_site825],9.43
4,ATAAATGAAGATAAATTAAAAAAAAAAAAAAAAAAA [CACACA_negctrl_site992],6.15
5,ATAACATACATAACAACACACAATATTTATATGTAT [CACACA_site210],6.61
6,GAATGTATTCATAAATGTACTTATAATATTATAATA [XGTACX_site3466],6.58
7,AATACATAAATATTTTGTACATATTATATAAAATAT [XGTACX_site1627],6.64
8,CTTGTACCTAGAAATACACACAATTATATAACTTAT [CACACA_site2838],6.57
9,ATGAAAAAAAAAAAAAAAAAAAAAAAAAAAAAAAAA [CACACA_negctrl_site1405],5.99
10,GTTTATCACAGCCACGCACACATAATATCTGTATAT [CACACA_site5929],7.11
11,GATTATTAATAGTAACGTACATATGTTATAAAATAT [XGTACX_site5277],6.61
12,CTTATATTGTACAGTACACACCTTTATAATGTTATT [CACACA_site4280],7.11
13,TAGTAAAAACCAAAATGTACATGTGCCATTTTTTTA [XGTACX_site2630],6.15
14,AAATTCCACGAACACACACACATATAAATAAATAAA [CACACA_site6697],6.63
15,TATATTATACTAAGAAGTACAATATTTTTATTGTAA [XGTACX_site2810],5.85
16,TATAGTATTCTAAATGCATGTAAATTATGTATATAT [TGCATGCA_site931],6.46
17,ACTAATATGTATATATATATATATATATATATATAT [CACACA_negctrl_site141],9.37
18,TACATATTTAAATACTGTACTCAAAAGAATTGTGCA [XGTACX_site2250],6.31
19,ATCAAAAAAAAAAAAAGTACACAAAATTTTTTATTA [XGTACX_site7986],5.96
20,AAGGTTTAAAATTACTGTACAAATATAAATAAATAT [XGTACX_site3756],6.51
21,ATAATGAACAAAGTAGTGCACTTTCCTTATCTTTTC,10.7
22,TATATGTGTGTTATATGTACTTATATATATATATAT [XGTACX_site5570],9.21
23,TTATATATTTCTACTCATATTACAATGTGAGAAATA [CACACA_negctrl_site873],6.21

row,Sequence,gcPBM binding intensity (ln)
1,TAGATATATAATTTTTGTACGTAGTCGAATCTCAGA [XGTACX_site765],6.14
2,AACATTAAAAGGGATACACACATATAAATAAATAAT [CACACA_site489],6.83
3,CTCAACAAAATATGAGTGCATTGTTATTACATATAT,8.08
4,AAATATATATAAAAGTGTACATTTGTTATAATCAGT [XGTACX_site4822],6.71
5,CCAACTAAAAAGGAATGTACATAGTTATGGTTGGAA [XGTACX_site8762],6.98
6,TATATATATATATATATATATATATATATATGTTGT [TGCATGCA_negctrl_site24],9.44
7,ACTTTAAACAAAAAAAGTACTCTTTAATGAATATAT [XGTACX_site7176],6.21
8,CAATATTTTATTTAAGCATGCTCTAGGGTGTAAAAG [TGCATGCA_site1001],9.53
9,CAATTTCTCTTAATTTGTACATATATGTTATACAAA [XGTACX_site3231],6.73
10,ACATCAAGCAGACACACACACACACGCACACGCACA [CACACA_site6309],7.36
11,ACTATTCATGCATATACACACACATATATATATATT [CACACA_site9309],7.89
12,TAGATTTTTTAATGTTGTACAAATATACGATATATA [XGTACX_site3258],6.74
13,TTGTTTCTCTTTAAAAGTACAAAAATGGTTACATAT [XGTACX_site3109],6.5
14,TTTTTAATTTCAATGGTGCAGTAATAATATAATAGT,8.97
15,CATTTAAGACAAATTACACACGTATGCCAAATATAT [CACACA_site431],6.76
16,ATATTTTTTTTTGTTAGTACTCATATTTGTAGTTTT [XGTACX_site7280],7.01
17,AATATATATAATTATAGTACAGAAAATTAAAAAAGA [XGTACX_site2943],6.99
18,TCTTTAAATTTCTCAACACACAGTTATAAAAAATAA [CACACA_site2856],6.18
19,AACAATAAAAATAATTGTACAAGTTTAAAAAAAATT [XGTACX_site1987],6.58
20,TATATCTTATTTAACACACACAAAGAAAATAGAAAA [CACACA_site3732],6.81
21,TATAAATATATTTATACACACATTAGTGTATACATG [CACACA_site7397],6.92
22,AGGTGAAAAATATATAATAATGTAACAAAAAAAAAT [XGTACX_negctrl_site394],7.08
23,AACTATAACTAAAAAAATCACATAAAATATTTTATT [TGCATGCA_negctrl_site363],6.07

row,Sequence,gcPBM binding intensity (ln)
1,TCGTGTTAAATTTTTACACACAAACTTGCAATAATT [CACACA_site3824],7.46
2,TATATATATTAGTGTGCACACTTTTTATTTTTATCC [CACACA_site8506],10.5
3,ATATATTTATAATAGGTGCATATGTTTTATTTTTCC [GTGCAC_site9849],10
4,TGTTCTATTCTATTATTATTTACAAATTATAAATAA [GTGCAC_negctrl_site232],6.57
5,AAAGAATTATATAAGGTGCACGAATGTTTCTTTAAT,9.15
6,AAAAAAAAAAAAAAAAAAAAAATACATATATATATA [CACACA_negctrl_site290],8.87
7,ATATGTGTGTGTATTTGTACCCAATTTTTATATATA [XGTACX_site4948],7.15
8,AGATATGTTTTTAATTGTACATAAATACACAAATAT [XGTACX_site5981],6.45
9,TGTAATAAATAGTACACACACACATATATATATATT [CACACA_site1388],6.86
10,TAAAGTTAAAAATTATGTACATATATATTGTATATT [XGTACX_site5528],6.29
11,GATAAAATAGGACCATATTCTTTAAAACGATAAAAT [XGTACX_negctrl_site405],6.42
12,ATATATATATATTTATGTACATATACATAATGTATA [XGTACX_site6387],8.67
13,TTATTTTATATATCACGTACATAGTTGTCTTCTTTT [XGTACX_site2906],6.29
14,TAAGAAGTATTTTCCTGTACATATTTTATATGTATG [XGTACX_site4658],6.03
15,AAAATATAAAATAATGCACACATAAACAAAAAATCA [CACACA_site8382],10.5
16,TACAAGTATAAATAAGCACACATGTGGATATGTACA [CACACA_site4229],6.67
17,ATGAATCCTTAATATGAACACACAAATATATTACAC [CACACA_site7943],6.7
18,TCCTTATTTATATAATGTACTTTTTTTTTTCATTTT [XGTACX_site4275],6.51
19,TTATTTCAAAGTAAATCAGTAAATATTTGTTTTCTT [CACACA_negctrl_site1572],6.1
20,TTTTTTATTTATCCTATATATTACTAAATGAAGAAC [GTGCAC_negctrl_site333],6.35

# Reference: the supplement of paper PMC11417369
